Measurements reported in PubChem BioAssay AID485294 (National Center for Advancing Translational Sciences (NCATS), 2010).
“And” between values parts separate entries of the source, which are not always exact repeats. Equal entries are not always repeated. Hit rate of the full screen: of about 370,000 compounds, about 150 (0.041%) were called active. Inconclusive results, whose numbers are uncertain, are shown with a selection of clear calls. Calls come from the whole dose curve; as a rule, active = well fitted inhibition curve with a large enough effect; inconclusive = small, poorly fitted or top-dose-only effect; inactive = flat fitted curve, though single readings scatter. Where the call is inconclusive, the potency comes from a doubtful curve fit.

Target: Beta-lactamase (Escherichia coli (strain K12)) (UniProt P00811)
UniProt P00811, sequence (P00811 whole entry, looked up): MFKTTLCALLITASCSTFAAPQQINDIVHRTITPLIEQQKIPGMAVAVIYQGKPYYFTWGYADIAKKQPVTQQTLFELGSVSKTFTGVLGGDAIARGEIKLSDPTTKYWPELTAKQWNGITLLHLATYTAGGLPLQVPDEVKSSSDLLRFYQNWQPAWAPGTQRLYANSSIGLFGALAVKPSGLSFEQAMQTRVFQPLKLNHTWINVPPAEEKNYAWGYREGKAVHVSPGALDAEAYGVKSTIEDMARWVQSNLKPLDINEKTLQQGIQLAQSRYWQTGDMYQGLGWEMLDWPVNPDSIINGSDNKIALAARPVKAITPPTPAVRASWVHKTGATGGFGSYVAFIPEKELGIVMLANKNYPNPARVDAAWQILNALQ
Assay: qHTS Inhibitors of AmpC Beta-Lactamase (assay with detergent); note: nearly all actives have a fitted effect of over 25% in size;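 for activity change, negative = inhibition: 0% = no-compound wells and -100% = no-enzyme wells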
Details: AmpC hydrolysis of nitrocefin, absorbance 480 nm, 0.01% Triton; activity change, negative = inhibition: at 114 µM (top of the series)
Method in brief: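 AmpC (5.3 nM in the dispensed reagent) in 20 mM phosphate pH 7.0 with 0.01% (detergent screen) or 0.0001% Triton X-100 was preincubated with compounds for 15 min at room temperature. Nitrocefin was then added from an 800 uM solution, and hydrolysis was followed at 480 nm.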
Potency is the fitted concentration of half-maximal effect; tags give direction and shape of the fitted curve.

SMILES | Potency | activity change, negative = inhibition
O=C(COc1cc(Cl)ccc1Cl)N1CCNC1=O | inconclusive: 25.1 µM [inhibitor, full curve] | 
COC(=O)c1sc2ccccc2c1NC(=O)c1ccc(S(=O)(=O)N2CCCC(C)C2)cc1 (centres undefined) | inconclusive: 39.8 µM [inhibitor, partial curve] | 
CCOc1ccc2[nH]c3c(N4CCN(c5ccccn5)CC4)ncnc3c2c1 | inconclusive: 56.2 µM [inhibitor, partial curve, poor fit] | 
CC(=O)c1ccc(OCC(O)CN2C(C)(C)CC(O)CC2(C)C)cc1 (centres undefined) | inconclusive: 3.55 µM [inhibitor, full curve, poor fit] | 
COc1cc(/C=N/NC(=O)c2ccoc2C)ccc1O | inactive | 
Cc1cc(C(=O)Nc2ccc3ccccc3c2)c(C)o1 | inactive | 
CC(C)Oc1ccc(CNC(=O)c2cnc3sc(N4CCCCC4)nn3c2=O)cc1 | inactive | 
COc1ccc(Oc2ccc3c(C(F)(F)F)cc(C(F)(F)F)nc3n2)cc1 | inconclusive: 79.4 µM [inhibitor, single point] | 
Cn1cnc(S(=O)(=O)N2CCC(C(=O)N3CCN(c4ccc(Cl)cc4)CC3)CC2)c1 | inactive | 
COc1ccc(-c2nnc(SCC(=O)Nc3ccc(C)cc3)n2C)cc1 | inconclusive: 28.2 µM [inhibitor, full curve, poor fit] | 
CCOC(=O)C1CCN(S(=O)(=O)c2c(Cl)ccc3nonc23)CC1 | inactive | 
Cn1c(CCCNC(=O)c2cccs2)nc2ccccc21 | inconclusive: 1.78 µM [inhibitor, full curve] | 
O=C(NCc1cccnc1)NC1(C(F)(F)F)Oc2ccc(Cl)cc2O1 (centres undefined) | inconclusive: 5.01 µM [inhibitor, full curve, poor fit] | 
COc1ccc(-c2cc(C(F)(F)F)n3ncc(C(=O)O)c3n2)cc1OC | inactive | 
CC(C)(C)c1cc(NC(=O)c2cccnc2)no1 | inconclusive: 39.8 µM [inhibitor, partial curve] | 
Nc1ccccc1S(N)(=O)=O | inconclusive: 3.98 µM [inhibitor, full curve] | 
COC(=O)[C@@H]1C[C@@]2(O)[C@@H](O)[C@@H](O)[C@@H](O)C[C@H]2N1Cc1cc(OC)cc(OC)c1 | inactive | 
O=[N+]([O-])c1cccc(-c2nnc(-c3ccccc3)o2)c1 | inactive | 
O=C(N/N=C\c1cc(Cl)ccc1O)c1ccc(S(=O)(=O)N2CCCCC2)cc1 | inconclusive: 100 µM [inhibitor, single point] | 
CCOC(=O)COc1cccc2c(=O)n(CC(=O)N3CCCCC3)ccc12 | inactive | 
Cc1nnc(NC(=O)CCCN2C(=O)c3ccccc3C2=O)s1 | inconclusive: 0.631 µM [inhibitor, full curve, poor fit] | 
COc1cc(NC(=O)Nc2cccc(C(C)=O)c2)cc(OC)c1OC | inconclusive: 2.82 µM [inhibitor, full curve, poor fit] | 
CCn1ncc(/C=N/N=C2\CCC3C4CCc5cc(O)ccc5C4CCC23C)c1C (centres undefined) | inconclusive: 39.8 µM [inhibitor, single point] | 

SMILES | Potency | activity change, negative = inhibition
O=C(NC12CC3CC(CC(C3)C1)C2)C1CC(=O)N(c2ccc(Br)cc2)C1 (centres undefined) | inconclusive: 44.7 µM [inhibitor, partial curve, poor fit] | 
O=C(c1ccc(F)cc1)N1CCCC(C(=O)N2CCc3ccccc3C2)C1 (centres undefined) | inactive | 
COc1ccc(S(=O)(=O)N2CCCC(C(=O)Nc3cccnc3)C2)cc1Cl (centres undefined) | inactive | 
CC1=Nn2c(nnc2-c2ccccc2Cl)SC1 | inconclusive: 112 µM [inhibitor, partial curve, poor fit] | 
CC1CCC(NC(=O)c2cc3c(s2)CS(=O)(=O)C3)CC1 (centres undefined) | inconclusive: 0.631 µM [inhibitor, full curve, poor fit] | 
O=C(Nc1ccc(N2CCOCC2)nc1)c1ccc(F)cc1 | inconclusive: 35.5 µM [inhibitor, partial curve] | 
COc1ccc(/C=N/NC(=O)C(C)n2cnc3ccccc3c2=O)cc1 (centres undefined) | inconclusive: 1 µM [inhibitor, full curve, poor fit] | 
COc1cccc(CNC(=O)COCc2cc(-c3ccc4c(c3)OCO4)on2)c1 | inactive | 
CCN1C(=O)[C@@H]2[C@@H](c3ccc(-c4ccc(F)cc4)cc3)N3CCC[C@@]3(C(=O)OC)[C@@H]2C1=O | inconclusive: 3.55 µM [inhibitor, single point] | 
Cc1cccnc1Nc1nc(-c2ccc(O)cc2)cs1 | inconclusive: 44.7 µM [inhibitor, single point] | 
CCOC(=O)c1c(NS(C)(=O)=O)sc2c1CCC(C)C2 (centres undefined) | inconclusive: 100 µM [inhibitor, partial curve, poor fit] | 
CCOC(=O)C(C)Sc1nc2c(c(=O)[nH]c(=O)n2C)n1Cc1ccc(Cl)cc1 (centres undefined) | inconclusive: 0.708 µM [inhibitor, full curve] | 
O=C(NC1CCCCC1)C1CCCN1S(=O)(=O)c1cccc2nsnc12 (centres undefined) | inconclusive: 56.2 µM [inhibitor, partial curve] | 
O=S1(=O)NC2CCCCCN2c2ccc(F)cc21 (centres undefined) | inconclusive: 112 µM [inhibitor, partial curve, poor fit] | 
Cc1nc2c(C(=O)NCc3ccc4c(c3)OCO4)cnn2c(C)c1Cc1ccc(F)cc1Cl | inactive | 
O=C(O)C(c1ccccc1)N1CCCC1 (centres undefined) | inconclusive: 3.55 µM [inhibitor, full curve, poor fit] | 
O=C(NCCN1CCOCC1)c1cc2c(=O)n3ccccc3nc2n1Cc1ccccc1 | inconclusive: 0.891 µM [inhibitor, full curve, poor fit] | 
Cc1ccc(N(CC(=O)NC(C)(C)C)C(=O)CCC(=O)Nc2nccs2)cc1C | inconclusive: 5.01 µM [inhibitor, full curve, poor fit] | 
c1cncc(-c2nc3c(ccc4ccccc43)[nH]2)c1 | inconclusive: 79.4 µM [inhibitor, partial curve] | 
Cc1cccc(OCC(=O)Nc2nnc(S(=O)(=O)N3CCC(C)CC3)s2)c1 | inconclusive: 14.1 µM [inhibitor, full curve] | 
OCC#Cc1ncc(C(F)(F)F)cc1Cl | inactive | 
C#CCOc1ccc(C2C(C#N)=C(N)Oc3cc(O)ccc32)cc1 (centres undefined) | inconclusive: 6.31 µM [inhibitor, full curve, poor fit] | 
Cc1nn(Cc2ccccc2Cl)c(Cl)c1C(=O)O | inactive | 

SMILES | Potency | activity change, negative = inhibition
Cc1ccc2c(c1C)NC(C(=O)O)C1CC=CC21 (centres undefined) | inactive and inconclusive: 70.8 µM [inhibitor, single point] | 
CCOc1ccc(NC(=O)CSc2nnc(N)s2)c([N+](=O)[O-])c1 | inactive | 
CCCOc1ccc(NC(=O)CC2C(=O)N(c3ccc(C)cc3)C(=O)N2Cc2cccc(OC)c2)cc1 (centres undefined) | inactive | 
Nn1c(SCC(=O)Nc2cccc(C(F)(F)F)c2)nncc1=O | inactive | 
CC(=O)NCC(=O)OC(C(=O)c1ccccc1)c1ccc(Cl)cc1 (centres undefined) | inconclusive: 79.4 µM [inhibitor, partial curve] | 
Cc1ccc(C)c(N2N=C(C(=O)NCCN3C(=O)S/C(=C\c4cccnc4)C3=O)CCC2=O)c1 | inconclusive: 5.01 µM [inhibitor, full curve, poor fit] | 
Cc1cccc(NC(=O)c2sc(-n3nc(C)c(CCC(C)C)c3C)nc2C)c1C | inactive | 
Cc1cc(C)n(-c2ccc(C(=O)Nc3sccc3C(N)=O)cc2)n1 | inactive | 
N#Cc1ccc(NC(=O)COC(=O)CCc2ccc(S(=O)(=O)N3CCCCC3)cc2)cc1 | inconclusive: 100 µM [inhibitor, partial curve, poor fit] | 
Cc1ccc(C2=Nc3ccccc3NC(C)(c3ccc(C)o3)C2)o1 (centres undefined) | inactive | 
CCOc1ccccc1Nc1nc(-c2cccnc2)cs1 | inconclusive: 100 µM [inhibitor, partial curve, poor fit] | 
CCCN1CCc2[nH]c(=S)[nH]c(=O)c2C1 | inconclusive: 0.794 µM [inhibitor, full curve, poor fit] | 
COC(=O)c1c(NC(=O)c2ccc(N(C)S(=O)(=O)c3ccc(C)cc3)cc2)sc2c1CCCC2 | inconclusive: 5.01 µM [inhibitor, full curve] | 
NC(=O)C1CCN(c2nc(-c3cccnc3)cs2)CC1 | inconclusive: 44.7 µM [inhibitor, partial curve, poor fit] | 
CN(C)c1cccc(Oc2nc3c(c(=O)n(C)c(=O)n3C)n2C)c1 | inconclusive: 0.708 µM [inhibitor, full curve, poor fit] | 
COc1ccccc1NC(=O)N(Cc1ccco1)Cc1cc2ccc(C)c(C)c2[nH]c1=O | inactive | 
O=S(=O)(c1ccc2[nH]c3c(c2c1)CCCCC3)N1CCN(c2cccc(Cl)c2)CC1 | inactive | 
CCOC(=O)c1ccccc1NC(=O)COC(=O)CN1C(=O)NC2(CCCC2)C1=O | inconclusive: 44.7 µM [inhibitor, partial curve, poor fit] | 
O=[N+]([O-])c1ccc(N2CCCC2)cc1NC1CC1 |  | inconclusive: -16.7% [inhibitor]
COc1ccc(OC)c(C2C3=C(N=c4s/c(=C\c5cccc(O)c5)c(=O)n42)c2ccccc2CC3)c1 (centres undefined) | inconclusive: 0.631 µM [inhibitor, full curve, poor fit] | 
CCCN1C(=O)/C(=C/c2c(N3CCNC(=O)C3CC(=O)OC)nc3c(C)cccn3c2=O)SC1=S (centres undefined) | inactive | 
O=C(C1CC(c2ccc(F)cc2)=NO1)N1CCN(c2ccccc2)CC1 (centres undefined) | inconclusive: 44.7 µM [inhibitor, partial curve] | 
O=C(Nc1ccc(F)c(F)c1)NC1CCCCC1 | inactive | 
